Source: paper PMC4336329 (PLoS ONE, 2015)
The campaign covered roughly 310,000 compounds. About 14,000 (4.5%) showed an effect of 50% or more. The effect is printed as a negative number. This is one part of the list.

Biological target: human ether-à-go-go-related gene (hERG) potassium channel (human, UniProt Q12809)
Assay: primary screen, population patch clamp on CHO cells stably expressing hERG
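Note: peak tail current of the secondary pulse compared with the same well before compound.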

human ether-à-go-go-related gene (hERG) potassium channel, sequence (Q12809 whole entry, looked up): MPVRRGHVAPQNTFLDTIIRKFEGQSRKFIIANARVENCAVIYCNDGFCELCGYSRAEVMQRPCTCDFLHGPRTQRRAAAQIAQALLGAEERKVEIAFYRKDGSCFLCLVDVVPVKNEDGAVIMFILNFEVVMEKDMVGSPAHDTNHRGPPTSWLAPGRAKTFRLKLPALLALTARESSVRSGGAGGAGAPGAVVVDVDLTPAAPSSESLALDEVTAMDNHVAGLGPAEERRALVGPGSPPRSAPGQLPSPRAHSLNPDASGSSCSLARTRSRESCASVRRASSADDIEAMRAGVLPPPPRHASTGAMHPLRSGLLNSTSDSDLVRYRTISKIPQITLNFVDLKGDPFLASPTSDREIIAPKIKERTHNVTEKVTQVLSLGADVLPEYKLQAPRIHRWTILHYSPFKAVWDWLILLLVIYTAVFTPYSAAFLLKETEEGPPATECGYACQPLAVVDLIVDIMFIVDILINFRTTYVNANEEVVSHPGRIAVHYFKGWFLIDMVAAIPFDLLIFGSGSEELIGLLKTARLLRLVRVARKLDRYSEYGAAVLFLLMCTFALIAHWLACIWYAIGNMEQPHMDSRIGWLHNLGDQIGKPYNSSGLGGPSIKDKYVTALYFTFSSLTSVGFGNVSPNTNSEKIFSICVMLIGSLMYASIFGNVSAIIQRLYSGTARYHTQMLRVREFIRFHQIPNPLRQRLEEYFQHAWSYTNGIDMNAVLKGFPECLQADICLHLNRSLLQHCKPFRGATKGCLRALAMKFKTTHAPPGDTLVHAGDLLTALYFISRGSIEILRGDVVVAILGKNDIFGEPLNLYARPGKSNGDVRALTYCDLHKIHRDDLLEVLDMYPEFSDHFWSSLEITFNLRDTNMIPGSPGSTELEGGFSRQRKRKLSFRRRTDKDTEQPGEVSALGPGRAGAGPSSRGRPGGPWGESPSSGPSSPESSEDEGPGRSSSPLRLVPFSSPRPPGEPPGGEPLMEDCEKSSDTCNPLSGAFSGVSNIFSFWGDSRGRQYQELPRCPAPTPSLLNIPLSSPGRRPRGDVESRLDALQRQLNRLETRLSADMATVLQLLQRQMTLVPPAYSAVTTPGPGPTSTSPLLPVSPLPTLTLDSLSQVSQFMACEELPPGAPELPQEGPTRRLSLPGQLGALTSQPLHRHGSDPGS

Row | Compound | hERG current change (%, negative = inhibition) at 10uM [%]
1 | O=C(Cn1cnc2c(NC(=O)OCc3ccccc3)ncnc21)NCCN1CCOCC1 | 1.26
2 | CC(C)(C)c1cc(C(=O)N/N=C/c2ccncc2)n[nH]1 | -2.71
3 | O=C1CCC/C1=c1\s/c(=C\c2cccnc2)c(=O)n1-c1ccccc1 | 16.4
4 | Cc1c(C(=O)NCC2CCCO2)sc2nc(-c3ccc(F)cc3)cn12 (stereo not shown) | -29.7
5 | COCCN1CCN(Cc2nc(C3(c4ccc(C)cc4)CCCC3)no2)CC1 | -9.3
6 | Cn1nccc1C(=O)N1CCc2c([nH]c3ccccc23)C1c1ccc(F)cc1 (stereo not shown) | -19.4
7 | O=C(COC(=O)Cc1ccc(F)cc1)NCCc1ccccc1 | 14.2
8 | CC1(C(=O)[O-])CCCC2(C)c3cc(O)ccc3CCC12.[Ba+2] (stereo not shown) | 10.7
9 | COc1cccc(-n2ccnc2SCC(=O)N2CCCc3ccccc32)c1 | -10
10 | O=C(CN1c2ccccc2S(=O)(=O)c2ccccc21)Nc1ccccc1F | 4.69
11 | CCN(CC(=O)Nc1ccc(NC(C)=O)cc1)C(=O)CCCc1nc2ccccc2c(=O)[nH]1 | 14.3
12 | COc1ccc(C2=NOC(C(=O)NCc3ccccn3)C2)cc1OC (stereo not shown) | 18.4
13 | O=C(Nc1ccc(F)cc1)C1CC(=O)n2c(nc3ccccc32)N1 (stereo not shown) | -8.08
14 | COc1ccc(C(C)=O)cc1CSc1ccc(S(=O)(=O)N2CCCCC2)cn1 | -3.91
15 | COCCNC(=O)C(NC(=O)C1CCCCC1)C(C)C (stereo not shown) | 10.3
16 | Cc1ccc(/C=C/C(=O)NC(=S)N2CCN(C)CC2)cc1 | -20.5
17 | COc1ccc(-c2cc(C(=O)NCc3ccco3)no2)cc1OC | -2.86
18 | Cc1ccc(NC(=O)c2oc3ccccc3c2NC(=O)c2ccc3c(c2)OCO3)cc1 | -4.41
19 | CCc1ccc(S(=O)(=O)NCC2(N3CCOCC3)CCCCC2)cc1 | -34.8
20 | CC(C)C(=O)Nc1cccc(NC(=S)NC(=O)C(c2ccccc2)c2ccccc2)c1 | -5.95
21 | Cc1ccc(N(CC(=O)N2CCOCC2)S(C)(=O)=O)cc1 | 16.7
22 | O=C(NN=C1CCCC1)c1ccccc1OCCOc1ccccc1 | 1.55

Row | Compound | hERG current change (%, negative = inhibition) at 10uM [%]
23 | Cc1cccnc1CN1CCN(Cc2nc(Cc3cccc(F)c3)no2)CC1 | -29.5
24 | Cn1c2ccccc2c2c(C(=O)N3CCC4(CC3)OCCO4)cn(C3CCCCC3)c(=O)c21 | -15.2
25 | COC(/C=C/Nc1ccc(C)cc1)=C(C#N)C#N | -38
26 | Cc1ccc(C2=NN(S(C)(=O)=O)C(c3ccc4c(c3)OCO4)C2)cc1 (stereo not shown) | -2
27 | CN(C(=O)C12CC3CC(CC(C3)C1)C2)C1(C)CCS(=O)(=O)C1 (stereo not shown) | -4.12
28 | CCOCCCn1c(=S)[nH]c2cc(C(=O)NC3CCCCC3C)ccc2c1=O (stereo not shown) | -1.79
29 | CC(=O)c1ccc(Sc2nnc(C)s2)c([N+](=O)[O-])c1 | 1.07
30 | Nc1nnc(SCC(=O)N2CCN(c3ccccc3)CC2)n1-c1ccccc1 | 15.2
31 | COc1ccccc1NC(=O)c1cc(N)cc(C(=O)Nc2ccccc2OC)c1 | -50.6
32 | O=C(CCNS(=O)(=O)c1cccs1)Nc1ccccc1F | 10.4
33 | NS(=O)(=O)c1cccc(NC(=O)C(Cc2ccccc2)NC(=O)c2ccccc2)c1 (stereo not shown) | 3.2
34 | CCC(=O)Nc1cccc(C(=O)c2ccccc2)c1 | -0.703
35 | Cc1cc2ccccn2c1C(=O)c1cccc(F)c1 | -11.6
36 | COc1ccc(-c2c[n+]3c(n2-c2c(C)n(C)n(-c4ccccc4)c2=O)CCCCC3)cc1.[Br-] | 4.43
37 | CC1CCCCC1NC(=O)CCS(=O)(=O)c1ccc2c(c1)NC(=O)CS2 (stereo not shown) | -1.82
38 | Cc1csc(NC(=O)CSc2nc3ccccc3c3c2CCCC3)n1 | 16.4
39 | CCC1=NN(C(=O)Cc2ccc([N+](=O)[O-])cc2)C(O)(c2ccncc2)C1 (stereo not shown) | -11.9
40 | COc1ccccc1OCC(=O)NNC(=O)C1CCN(c2ncnc3sc(C)c(C)c23)CC1 | 10.5
41 | CCOC(=O)N1CCN(C(=O)Nc2ccc3nc(-c4ccccn4)c(-c4ccccn4)nc3c2)CC1 | 7.65
42 | CC(C)(C)C(Cn1ccnc1)NC(=O)c1ccc2nc(C3CC3)oc2c1 (stereo not shown) | -6.71
43 | Cc1cc(=O)n2c3c(sc2n1)C(=O)N(Cc1ccccc1)C3=O | -0.36
44 | NC(=O)C1=CN(Cc2ccc(Cl)cc2)CCC1C(F)(F)F (stereo not shown) | 6.5

Row | Compound | hERG current change (%, negative = inhibition) at 10uM [%]
45 | CC(=O)N1CCc2cc(S(=O)(=O)NC(CC(C)C)C(=O)N3CCn4c3nc3ccccc34)ccc21 (stereo not shown) | -60
46 | Cc1cc(NC(=O)c2ccccc2F)on1 | 7.01
47 | Br.COc1ccccc1C1=Nn2c(COc3ccccc3)nnc2SC1 | -14
48 | CCCNC(=O)c1ccc(N2CCC3(CC2)CC(c2cccc(Br)c2)=NO3)c(NC(=O)c2ccc(Br)cc2)c1 | 6.46
49 | CSc1nc(-c2ccco2)cc(-c2ccccc2)c1C#N | 3.95
50 | Cc1ccc(S(=O)(=O)CCC(=O)OCC(=O)NC(N)=O)cc1 | 7.58
51 | COc1ccc(CC(=O)N[C@@H](CCSC)C(=O)N2CCC3(CC2)NCCc2[nH]cnc23)cc1 | 5.32
52 | COc1ccc(C(=O)N2CCC(n3nccc3NC(=O)C3CC3)CC2)cc1F | -26.8
53 | O=C(CSC1=NS(=O)(=O)c2cc(F)ccc2N1)Nc1ccccc1F | 13.5
54 | CCCCN(CCCNC(=O)C1CCCN(S(=O)(=O)CC)C1)Cc1ccccc1 (stereo not shown) | -31.5
55 | O=C(Nc1ccc(S(=O)(=O)Nc2ncccn2)cc1)C1CC(=O)N(c2ccc(Cl)cc2)C1 (stereo not shown) | 1.56
56 | CCC(C)c1ccccc1N1CC(C(=O)N(C)CC(=O)Nc2cccc(F)c2)CC1=O (stereo not shown) | 1.98
57 | Cc1ccc(NC(=O)CCN2CCN(C/C=C/c3ccccc3)CC2)cc1.Cl | -90.9
58 | CC(=O)c1cccc(CN2CCC(CO)(CCCc3ccccc3)CC2)c1 | -63.9
59 | CCCn1c(-c2cccc(F)c2)nc2c1c(=O)[nH]c(=O)n2Cc1ccccc1 | 17.5
60 | CCN(CC)CCNC(=O)c1ccc(Cl)c(S(=O)(=O)Nc2ccc(Cl)cc2)c1 | -37.7
61 | CC1=C(C(=O)OC2CCCCC2)C(c2cccnc2)n2nnnc2N1 (stereo not shown) | -1.43
62 | COc1ccc(C(=O)/C=C/NCc2ccc(F)cc2)cc1OC | -65
63 | COc1ccc(OC)c(N(CC(=O)N2CCCC2)S(=O)(=O)c2ccc(OC)c(OC)c2)c1 | 4.84
64 | NC(=O)c1ccccc1OCc1nc2ccccc2s1 | 1.07
65 | Cc1ccccc1N1CCN(CCC(=O)Nc2ccc(F)cc2)CC1 | -67.5
66 | CCCCN(C(=O)c1ccc(OC)c([N+](=O)[O-])c1)c1c(N)n(CCC)c(=O)[nH]c1=O | 15.4

Row | Compound | hERG current change (%, negative = inhibition) at 10uM [%]
67 | O=C1c2ccccc2C(=O)N1CCN1CCCCC1 | -6.2
68 | COc1cccc(-c2cc(C(=O)Nc3cc(OC)c(OC)c(OC)c3)no2)c1 | -27.1
69 | CCOC(=O)N1CCN(CC(c2ccccc2)c2ccccc2)CC1 | -13
70 | NC(=O)c1nsc(C(=O)N(Cc2ccccc2F)C(C(=O)NCC2CCCO2)c2ccc(F)cc2)c1N (stereo not shown) | -2.45
71 | O=C(CSc1nn(-c2ccc(F)cc2)c(=S)s1)NC1CCS(=O)(=O)C1 (stereo not shown) | -11.3
72 | CC(C)CCn1c(CN2CC(C)OC(C)C2)nc2c1c(=O)n(C)c(=O)n2C (stereo not shown) | 11.7
73 | Cc1ccc(S(=O)(=O)N2CC(C(=O)O)=CC[C@H]2c2ccc3c(c2)OCO3)cc1 | 0.234
74 | COc1ccc(-c2nnc(Nc3ccc(OC)c(C(=O)N4CCCCC4)c3)c3ccccc23)cc1 | -39.3
75 | Cc1cc(Nc2nc3ccccc3nc2Cl)n(-c2ccc([N+](=O)[O-])cc2)n1 | -6.73
76 | C=CCNc1nc2ccccc2nc1NS(=O)(=O)c1cccs1 | -2.96
77 | CCOc1ccc(-n2cnc3scc(-c4ccc(OC)c(OC)c4)c3c2=O)cc1 | -4.54
78 | O=C1CSC2=NCN(c3ccc4c(c3)OCO4)CN12 | -18.2
79 | COc1cc2c(cc1OC)C(C(=O)N1CCCC1)C(c1ccccc1F)N(C)C2=O (stereo not shown) | 15.4
80 | CN(CC(=O)Nc1cccc2c1CCCC2)S(=O)(=O)c1ccccc1 | 1.63
81 | CCCc1cnc(N2CCN(C(=O)c3ccc(OC)cc3)CC2)nc1 | -52.4
82 | CCNCc1cc([N+](=O)[O-])ccc1OCC.Cl | -1.39
83 | COc1ccc(N(CC(=O)NCCSCc2ccco2)S(=O)(=O)c2ccc(C)cc2)cc1 | -17.9
84 | CCCCNC(=O)Cn1cnc2sc(C(=O)OCC)c(C)c2c1=O | 3.05
85 | NC1=NC[C@@H](Cc2ccc(O)cc2)N1CCc1cccc2ccccc12 | 9.21
